Reference: PubChem BioAssay AID1508642 (National Center for Advancing Translational Sciences (NCATS), 2021)
Out of some 43,000 compounds screened, about 200 (0.47%) were called active. Inconclusive results (about 12%) are left out. The call rests on the fitted dose curve; in most records, active means well fitted cell-killing curve with a large enough effect; inconclusive means small, poorly fitted or top-dose-only effect, or effect the other way; inactive means flat fitted curve, though single readings scatter. The list shows a part of the results.

assay: Cell viability qHTS assay in S16 Pmp22-F2sN cells; details: S16 Pmp22-F2sN Schwann cells viability, CellTiter-Glo, 24 h; series mostly up to 57.5 µM; activity change, negative = cytotoxicity: at the top concentration; further: nearly all actives have a fitted effect of over 65% in size
Summary of the method: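 Used to flag compounds lowering reporter output through toxicity, this quantitative HTS measures ATP-based CellTiter-Glo luminescence in S16 Pmp22-F2sN Schwann cells after 24 h compound exposure at 37C.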
On the % scale 0 is the no-effect control and ±100 the full control effect; potency means the concentration at half of the fitted maximal effect.

SMILES | activity change, negative = cytotoxicity | Potency
CCOc1ccccc1N1CC(c2nc3ccccc3n2CCOc2ccc(OC)cc2)CC1=O (stereo not drawn) | inactive: 3.68% | –
CC(=O)N(Cc1cccnc1)c1nc2c(C)cc(C)cc2s1 | inactive: -20.1% | –
COc1ccc(CNC(=O)c2cc(-c3cccs3)nc3ccccc23)c(OC)c1 | inactive: -17.5% | –
Cc1ccc(-c2nc3ccccn3c2Nc2c(C)cccc2C)o1 | inactive: 24.7% | –
CC1CCc2c(sc3nnn(Cc4ccccc4)c(=O)c23)C1 (stereo not drawn) | inactive: 7.04% | –
Cc1ccc(NS(=O)(=O)c2ccc3[nH]c4c(c3c2)CCCC4)c(C)c1 | inactive: -4.46% | –
Cc1nnc(N2CCCC(C(=O)Nc3ccccc3C(F)(F)F)C2)c2nn(-c3ccccc3)c(C)c12 (stereo not drawn) | – | active: 28.2 µM
O=C(CSc1oc(-c2ccccc2)nc1S(=O)(=O)c1ccc(Br)cc1)NC1CCCCC1 | inactive: -5.96% | –
COc1ccc(CNC(=O)c2ccc3c(c2)N(Cc2ccccc2F)C(=O)c2ccccc2S3=O)cc1 (stereo not drawn) | inactive: 0.352% | –
CC(=O)Nc1nonc1-c1nnc(SCc2ccccc2C)n1C | inactive: -19.1% | –
CCOc1nc(NC(=O)NS(=O)(=O)Oc2cccc(F)c2)nc(-c2ccccc2)n1 | inactive: -0.35% | –
CCc1ccccc1NC(=O)Cc1ccc(-n2c(C)nc3cccnc32)cc1 | inactive: 0.569% | –
COc1ccc(OC)c(NC(=O)Cc2c(C(=O)O)[nH]c3ccc(Cl)cc23)c1 | inactive: 14.1% | –
COc1cccc(-c2ccc3c(N)c(C(=O)Nc4ccc(Cl)cc4F)sc3n2)c1 | inactive: -4.61% | –
CC(C)Cn1c(=O)c2sccc2n2c(CCCC(=O)NCC(C)c3ccccc3)nnc12 (stereo not drawn) | inactive: 14% | –
O=C(NCCN1CCN(c2ccccc2F)CC1)C1COc2ccccc2C1 (stereo not drawn) | inactive: -2.69% | –
Cc1cccc(C(=O)Nc2c(-c3ccc(F)cc3)nc3ccccn23)c1 | inactive: -14.3% | –
Cc1cc(C)n(-c2nc3cc(Cl)c(Cl)cc3nc2Nc2ccc(F)cc2C)n1 | inactive: 0.556% | –
CCn1c(=O)c2cc(C(=O)Nc3cc(C)c(Cl)cc3OC)sc2c2ccccc21 | inactive: 13.7% | –
COc1ccc(NC(=O)CSc2nc3ccccc3n2CC(=O)N2CCCC(C)C2)cc1 (stereo not drawn) | inactive: -0.897% | –
Cc1ccc(NC(=O)c2cc3c(Cl)nc4ccc(C)cc4c3s2)c(Cl)c1 | inactive: -0.0219% | –
O=C(c1ccc(Cl)cc1)N1CCCCC1CCN1CCOCC1 (stereo not drawn) | inactive: 7.7% | –
Cc1ccc(C)c(N2CCN(C(=O)c3cc4c(=O)n(Cc5cccnc5)ccc4nc3C)CC2)c1 | inactive: -11% | –
Cc1cc(C)c(Cn2c3ccccc3c3cnn(CC(=O)NC4CCCCCC4)c(=O)c32)c(C)c1 | inactive: -0.902% | –

SMILES | activity change, negative = cytotoxicity | Potency
COc1ccc(Cn2cc(C(=O)c3ccc(Cl)cc3)c(=O)c3cc4c(cc32)OCO4)cc1 | inactive: 27.1% | –
CCc1ccc(Nc2nn3c(=O)c4cc5c(cc4nc3s2)OCO5)cc1 | inactive: 10.2% | –
Cc1ccc(-n2nc3c(N4CCC(C(=O)N5CCC(C)CC5)CC4)nnc(C)c3c2C)cc1 | inactive: -5.42% | –
O=C(Nc1cccc(Cl)c1Cl)c1cc(S(=O)(=O)N2CCC3(CC2)OCCO3)ccc1F | inactive: -8.05% | –
Cc1cc(C)cc(NC(=O)C2CCCN2S(=O)(=O)c2ccc3c(c2)C(C)(C)C(=O)N3C)c1 (stereo not drawn) | inactive: 6.07% | –
CCOC(=O)C1(C)C=C(Nc2ccc(OC)cc2)C(=O)N1c1ccccc1 (stereo not drawn) | inactive: 3.48% | –
COc1ccccc1NC(=O)c1oc2ccccc2c1NC(=O)c1c(F)cccc1F | inactive: -24.6% | –
CCOC(=O)c1ccc(NC(=O)c2ccc3c(c2)c(C)c(C)n3Cc2ccc(F)cc2)cc1 | inactive: -6.7% | –
COc1cc(OC)c(NC(=O)c2c(C)nn(-c3ccc(C)cc3)c2-n2cccc2)cc1Cl | inactive: 18.3% | –
COc1ccc(C(=O)NCCn2cc(SCC(=O)Nc3ccccc3)c3ccccc32)cc1OC | inactive: 10.4% | –
CC(C)(C)C(=O)Cn1c(=O)n(CCCCCC(=O)NCc2ccc3c(c2)OCO3)c(=O)c2sccc21 | inactive: 3.77% | –
COc1ccc(OC)c(NC(=O)c2ccc(-c3nc(CSc4ccccc4)c(C)o3)cc2)c1 | inactive: -1.65% | –
CSc1cccc(NS(=O)(=O)c2ccc3[nH]cc(C(=O)N4CCCC4)c(=O)c3c2)c1 | inactive: 14.8% | –
COc1ccc(CCNC(=O)c2ccc3c(c2)CCN3S(=O)(=O)c2ccc(Cl)cc2)cc1 | inactive: -8.98% | –
Cc1ccc(NC(=O)CSc2nccn2C2CCCC2)cc1 | inactive: -17.1% | –
Cc1ccc(NC(=O)Cn2cc(S(=O)(=O)c3ccc(F)cc3)c(=O)c3cc4c(cc32)OCO4)cc1 | inactive: 11.4% | –
COc1ccc(-n2c3c(c(=O)[nH]c2=O)C(NC(C)=O)(C(F)(F)F)C(=O)N3)cc1 (stereo not drawn) | inactive: 3.49% | –
COCCNC(=O)Cn1c(=O)n(Cc2ccc(C(=O)NCCc3ccc(OC)c(OC)c3)cc2)c(=O)c2ccccc21 | inactive: 3.38% | –
COc1cc(Cl)c(C)cc1NC(=O)CCCN1C(=O)C(c2ccccc2)Oc2cccnc21 (stereo not drawn) | inactive: 10.4% | –
COc1ccc(NC(=O)C2CCCN(S(=O)(=O)c3cn(C)cn3)C2)cc1Cl (stereo not drawn) | inactive: 13.1% | –
Cc1ccc(C(=O)c2sc(Nc3ccccc3F)c(S(=O)(=O)c3ccccc3)c2N)c(C)c1 | inactive: -13.4% | –
O=C(NCc1ccc2c(c1)OCO2)c1ccc2c(c1)N(Cc1cccc(Cl)c1)C(=O)c1ccccc1S2 | inactive: -0.0762% | –
Cc1cccc(N2CCN(C(=O)C3CCN(S(=O)(=O)c4c(C)noc4/C=C/c4ccccc4F)CC3)CC2)c1C | inactive: -1.46% | –
COc1ccc(C(=O)N(Cc2sccc2C)C2CCS(=O)(=O)C2)cc1Cl (stereo not drawn) | inactive: -3.07% | –

SMILES | activity change, negative = cytotoxicity | Potency
Cc1cc(C)c(Cn2c3ccccc3c3cnn(CC(=O)NCCc4ccccc4)c(=O)c32)c(C)c1 | inactive: -13.2% | –
COc1ccc(Cl)cc1NC(=O)Cn1nnc2sc3c(c2c1=O)CCC(C(C)(C)C)C3 (stereo not drawn) | inactive: 12% | –
CCc1cccc(C)c1NS(=O)(=O)c1c(C(=O)N2CCCCCC2)c(C)n(C)c1C | inactive: 3.53% | –
Cc1ccc(Cl)cc1N1CCN(C(=O)CN2C(=O)COc3ccc(S(=O)(=O)N4CCOCC4)cc32)CC1 | inactive: 19.7% | –
O=C(NCc1ccc(F)cc1)c1ccc(CSc2nc3ccncc3n2Cc2ccc(F)cc2)cc1 | inactive: -17.9% | –
CCOC(=O)c1c(Nc2cccc(O)c2)nnc(-c2ccccc2)c1-c1ccccc1 | inactive: 27.8% | –
O=C(Nc1nnc(S(=O)(=O)N2CCCCCC2)s1)c1ccc(Br)cc1 | inactive: 6.29% | –
CC(=O)c1ccc(NC2=NS(=O)(=O)c3ccccc32)cc1 | inactive: 3.09% | –
CCc1ccc(NC(=O)CCS(=O)(=O)c2ccc3c(c2)CCN3C(C)=O)cc1 | inactive: -0.884% | –
Cc1cc(NC(=O)c2ccc3c(c2)N(Cc2cccc(Cl)c2)C(=O)c2ccccc2S3=O)ccc1Br (stereo not drawn) | inactive: 9.82% | –
Cc1ccc(S(=O)(=O)c2cn(Cc3ccccc3F)c3cc4c(cc3c2=O)OCO4)cc1 | inactive: -11.7% | –
CC1CCCN(Cc2c(O)ccc3c(=O)c(Oc4ccccc4Cl)c(C(F)(F)F)oc23)C1 (stereo not drawn) | inactive: 17.6% | –
COc1ccc(OC)c(CNC(=O)C2CCN(S(=O)(=O)c3cn(C)cn3)CC2)c1 | inactive: -0.721% | –
COc1cc(Cl)c(C)cc1NC(=O)c1cc(CN2CCOCC2)on1 | inactive: 2.48% | –
CCC1CN(S(=O)(=O)c2cc(-c3cc(C)no3)ccc2OC)c2cc(C)ccc2O1 (stereo not drawn) | inactive: -21.4% | –
COc1cccc2sc(N(Cc3cccnc3)C(=O)COc3ccccc3)nc12 | inactive: 1.81% | –
Cc1nn(-c2ccccc2)c(OC(=O)c2ccccc2F)c1S(=O)(=O)c1ccccc1 | inactive: 6.74% | –
CCOc1ccc(C(=O)Nc2nnc(SCc3cc(=O)c4cc(C)ccc4[nH]3)s2)cc1 | inactive: -8.66% | –
CC1CCN(S(=O)(=O)c2ccc3c(c2)N(CC(=O)NCCCN2CCCCC2C)C(=O)CS3)CC1 (stereo not drawn) | inactive: 12.7% | –
N#Cc1ccccc1NC(=O)c1cc2c(=O)n3ccccc3nc2s1 | inactive: -29.7% | –
COc1ccc(CCNC(=O)C2=C(C)C(=O)OC23CCCCC3)c(OC)c1OC | inactive: 3.93% | –
CCN(CC)S(=O)(=O)c1ccc2c(c1)nc(CN(C)C(=O)c1cccc(Cl)c1)n2C | inactive: -14.5% | –
Cc1ccc(C)c(NC(=O)CSc2nc(=O)n(CCN(C)C)c3c2CCC3)c1 | inactive: 20.8% | –
COc1cc(CN(C(=O)c2ccccc2[N+](=O)[O-])c2ccccn2)cc(OC)c1OC | inactive: -7.03% | –

SMILES | activity change, negative = cytotoxicity | Potency
Cc1sc2c(c1C)c(=O)n(CCc1ccccc1)c(=O)n2Cc1ccccc1Cl | inactive: 14% | –
CCc1ccccc1NC(=O)Cn1c(=O)c2cccn2c2ccc(F)cc21 | inactive: 5.75% | –
CC(C)c1ccc(NC(=O)CSC2=Nc3ccccc3C3=NC(CC(=O)NCc4ccc(F)cc4)C(=O)N23)cc1 (stereo not drawn) | inactive: -1.42% | –
COc1ccc(CNC(=O)c2ccc3c(c2)N(Cc2cccc(Cl)c2)C(=O)c2ccccc2S3)c(OC)c1 | inactive: 2.09% | –
Cc1ccc(CNC(=O)c2nc(SCc3ccc(C)cc3)ncc2Cl)cc1 | inactive: 5.71% | –
Cc1ccc(-n2c(=O)c3cccnc3n2CC(=O)Nc2cccc(C)c2C)cc1 | inactive: -15.7% | –
Cc1cccn2c(Nc3ccccc3)c(-c3ccc(N4CCOCC4)cc3)nc12 | inactive: -24.4% | –
CC(C)c1ccc(OC(=O)c2cc(-c3ccc4c(c3)OCCO4)on2)cc1 | inactive: 1.72% | –
COCCCNC(=O)CCn1c(=O)c2ccccc2n(CC(=O)Nc2c(C)cc(C)cc2C)c1=O | inactive: -0.701% | –
Cc1ccc2nc(-c3ccc(Cl)c(NC(=O)c4cccnc4)c3)oc2c1 | inactive: -5.15% | –
CC(=O)N1CCCc2cc(S(=O)(=O)N3CCCCC3)ccc21 | inactive: 1.59% | –
CN(C(=O)c1cc2c(=O)oc3ccccc3c2s1)c1ccc(F)cc1 | inactive: 23.6% | –
Cc1ccc(Cl)cc1N1CCN(C(=O)C2CCCN(S(=O)(=O)c3ccc(Br)s3)C2)CC1 (stereo not drawn) | inactive: -18.5% | –
COc1ccccc1NC(=O)CCn1cnc2ccccc2c1=O | inactive: 6.97% | –
O=S(=O)(NCC(c1ccco1)S(=O)(=O)c1cccs1)c1ccc(F)c(C(F)(F)F)c1 (stereo not drawn) | – | active: 2.51 µM
Cc1ccc(OCC(=O)NCC(=O)OCc2cc(=O)n3nc(C)sc3n2)cc1 | inactive: -12% | –
CCOC(=O)C1CCN(S(=O)(=O)c2cc(-c3onc(C)c3C)ccc2OC)CC1 | inactive: -0.961% | –
COc1ccc(C(=O)N2CCC(c3nc4ccccc4o3)CC2)cc1 | inactive: -2.1% | –
CCOc1ccc(C(=O)NCCc2csc(-c3ccc(C(F)(F)F)cc3)n2)cc1OCC | inactive: 22.7% | –
CCOc1ccccc1CNC(=O)C1CCN(C2=NS(=O)(=O)C(c3ccc(C)c(C)c3)=C2C)CC1 | inactive: 1.66% | –
CCCN(C(=O)c1nn(-c2ccc(OC)c(Cl)c2)c(=O)c2c1c1ccccc1n2C)c1ccccc1F | inactive: 8.49% | –
